Read counts are not given, so values of variants with three or more changes are uncertain.
B1: LINE1-mini (parent)
chain: GGCAGAGCUCAACACAGCGUGGCAAAGUGGCUGUGGCUAGACUGCC

Variants of: B1
Assay: self-cleavage, relative activity (ratio to wild type); higher = more cleavage; in vitro, sequencing; the parent is a self-cleaving ribozyme

Row | Variant | self-cleavage
1 | U34G G35U G44U | 0.05
2 | C3U U28C G30U | 0.12
3 | A39U U43C C46A | 0.07
4 | C13A C15U C46G | 0.04
5 | A4C C8G C15U G27C U38C | 0.05
6 | A26U U34C U38G G40A | 0.06
7 | G5U G21U U34A | 0.04
8 | C18G U20A G30U | 0.83
9 | A14C C18A C23G G27A G35U C46A | 0.04
10 | C8A A14U G21A A24G A26U U38G A41C | 0.02
11 | G7U C13A G21U G35C | 0.15
12 | A12U G21C G44A | 0.08
13 | G7A G27A A41G | 0.14
14 | A11U A14U U32C G44A | 0.02
15 | A11U G17C C42U | 0.03
16 | G2A C3A G7A A39U G44U | 0.5
17 | G7U C23A A26C C42A U43A | 0.05
18 | G2U C13A A14U U38C | 0.03
19 | G19A U20G G21A G22A G27U U38A | 0.12
20 | A11C G21C G29U U32C A41U | 0.01
21 | U9G C18U A24U | 0.02

Row | Variant | self-cleavage
22 | G2U G5A A25C A41U | 0.04
23 | U9C C13G C18U | 0.03
24 | G2C G22A U38A A41G | 0.12
25 | A6U A24C G27U G33A U38A G40A | 0.03
26 | A6C A11U G21A G30A | 0.11
27 | A11U C31G G35U | 0.02
28 | C3A A6U G19U G40C | 0.23
29 | G7C C31A A39G | 0.13
30 | G2U C13U G19A | 0.07
31 | G22U A25C A39U | 0.13
32 | G21A U32G A41U C42A | 0.04
33 | C23A A24G C37A G40U A41G | 0.11
34 | G22A C37A A39G G40A | 0.02
35 | G5A G7C G21U C45A | 0.03
36 | G5U A14U G33U U43A | 0.06
37 | C8G A11C G21C G33A U34G | 0.01
38 | A4G C13U U20A G27U | 0.04
39 | A16U C18G C31U C37A G44A | 0.07
40 | C3A G21U G30A | 0.89
41 | A14C C15U G40U | 0.03
42 | C3G A16G G19A U28C | 0.21

Row | Variant | self-cleavage
43 | U28C C37G C42A | 0.04
44 | G17C G19C U43C | 0.02
45 | G2C A6G C8G A16U U28A U38A | 0.15
46 | A16U U34A G36U | 0.04
47 | G1C G17U G21C A25G | 0.03
48 | A6C C18U C31A | 0.02
49 | A4G G7U A16C G44A | 0.04
50 | U9G C15U G22C U28G C37G | 0.03
51 | C3U A14C G35C | 0.47
52 | A4C A6G G30A | 0.15
53 | G1C C3U G19A C37A | 0.09
54 | C8U U28C A41U | 0.29
55 | G1A C8G U20C C23U G40U | 0.05
56 | U9C U38C G44C | 0.02
57 | A4C C15A C46A | 0.01
58 | C18U A26U G33A | 0.01
59 | U9C A12G C15A C18U C23G C42A | 0
60 | G2U A4C A11U U34A | 0.02
61 | A14G G19A U32C C37G | 0
62 | G7C A11U C15U A24U U38G | 0.01
63 | G1A U32A G35U G36A C45A | 0.02

Row | Variant | self-cleavage
64 | G7A C13A G21U G30A | 0.17
65 | G21A G22A C37A U43A | 0.04
66 | G7U A25G G29C U32A C46U | 0.04
67 | G1C A16C G29U | 0.07
68 | A12U G22A G27A U34C | 0.55
69 | C13U G22U C45G | 1.4
70 | G1A G33C U38C | 0.03
71 | A4G A12U A14G G19A U28G | 0.22
72 | A14C G27A G40U | 0.02
73 | G29A G44U C45G | 0.21
74 | G1U G5U C10A C15U | 0.02
75 | G2A C3U G29A U32G | 0.24
76 | C8G G21U A25C U38C C45G | 0.07
77 | A6U C13A A14U G22C C31A | 0.08
78 | A4C U20G G30A | 0.07
79 | A39C G40U C45G | 0.05
80 | U9A C31U A41C C45G C46A | 0.01
81 | A24C C31U G40A A41G | 0.02
82 | C15A U20A G33A G35A G40U C46A | 0
83 | G22C C23A C46A | 0.2
84 | A6U G22U C23A U38G A41G | 0.02

— the RNAGym collection of RNA variant scans (doi:10.7554/elife.90254)
